Laboratory results from patent US12286632B2, “Rationally-designed synthetic peptide shuttle agents for delivering polypeptide cargos from an extracellular space to the cytosol and/or nucleus of a target eukaryotic cell, uses thereof, methods and kits relating to same” (Feldan Bio Inc., priority 2016, dated 2025).
Part of at least one peptide drawing is inferred or uncertain, most often the ends. Some compounds share one wording; it may come from a single statement. Bridge positions count the residues as written; N and C are the ends. Ends that are not written are not given here. I, II: the chains in the order shown.

Tests used:
HeLa cells [1] = assay: Plasmid DNA (pEGFP-C1) transfection by peptides (% cells with GFP signal, cell viability); details: DNA transfection in HeLa cells using peptides; pEGFP-C1 plasmid
HeLa cells [2] = assay type: cell-based; details: peptide 5 μM; fold-increase relative to untreated calcein-loaded cells
Description: Calcein is a membrane-impermeable fluorescent molecule that is readily internalized by cells when administered to the extracellular medium. Its fluorescence is […] and calcein self-quenches at higher concentrations. Once internalized, calcein becomes sequestered at high concentrations in cell endosomes and can be visualized by fluorescence microscopy as a punctate pattern. Following endosomal leakage, calcein is released to the cell cytoplasm and this release can be visualized by fluorescence microscopy as a diffuse pattern.
The cells were allowed to attach by incubating overnight in appropriate growth media, as described in Example 1. The next day, the media in wells was removed and replaced with 50 μL of fresh media without serum containing 62.5 μg/mL (100 μM) of calcein, except for HEK293A (250 μg/mL, 400 μM). At the same time, the shuttle agent(s) to be tested was added at a predetermined concentration. The plate was incubated at 37° C. for 30 minutes. The cells were washed with 1× PBS (37° C.) and fresh media containing 5-10% serum was added. The plate was incubated at 37° C. for 2.5 hours. The cells were washed with 1× PBS and detached using trypsinization.
Untreated calcein-loaded cells were used as a control to distinguish cells having a baseline of fluorescence due to endosomally-trapped calcein from cells having increased fluorescence due to release of calcein from endosomes. Fluorescence signal means (“mean counts”) were analyzed for endosomal escape quantification. In some cases, the “Mean Factor” was calculated, which corresponds to the fold-increase of the mean counts relative to control (untreated calcein-loaded cells). […] The cellular mortality was monitored with the percentage of cells in the total events scanned. When it became lower than the control, it was considered that the number of cellular debris was increasing due to toxicity and the assay was discarded.

HeLa cells [3] = assay type: cell-based, Human; details: GFP 5 μM; 5 μM of each peptide; 1 hour; data not shown
HeLa cells [4] = assay: GFP-NLS protein transduction assay (flow cytometry: Pos cells %, viability %, relative fluorescence intensity; microscopy); details: Protocol B, GFP-NLS 5 μM; for Mean % cells with GFP signal (±St. Dev.; n = 3): HeLa
THP-1 cells = assay: as above; details: Protocol C, THP-1, 1 μM shuttle, 5 μM GFP-NLS
[5] = Table 10.4, peptide 50 μM, 10 seconds
[6] = Table 10.1, shuttle 50 μM, 10 seconds

## I: KWKLFKKIGAVLKVLTTGRQIKIWFQNRRMKWKKC / II: KWKLFKKIGAVLKVLTTGRQIKIWFQNRRMKWKKC (disulfide I:35-II:35) [dCM18-Pen-Cys]
HeLa cells [1]
  Mean % cells with GFP signal (±St. Dev.; n = 3): 0.35 ± 0.02%

## KWKLFKKIGAVLKVLTTG [CM18, reference compound]
HeLa cells [2]
  Mean Factor: 0.8
HeLa cells [1]
  Mean % cells with GFP signal (±St. Dev.; n = 3): 0.02 ± 0.00%
HeLa cells [3]
  GFP intracellular delivery (fluorescence microscopy): not successfully delivered intracellularly
HeLa cells [4]; [5]
  Mean % cells with GFP signal (±St. Dev.; n = 3): 2.9 ± 0.2%
HeLa cells [4]; peptide 50 μM, 10 seconds
  GFP-NLS transduction (flow cytometry, in words): not able to successfully transduce GFP-NLS

## KWKLFKKIGAVLKVLTTGGGSGGGSGGGSGYARAAARQARA [CM18-L3-PTD4]
HeLa cells [1]
  Mean % cells with GFP signal (±St. Dev.; n = 3): 0.06 ± 0.01%

## KWKLFKKIGAVLKVLTTGGGSGGGSYARAAARQARA [CM18-L2-PTD4]
HeLa cells [1]
  Mean % cells with GFP signal (±St. Dev.; n = 3): 0.14 ± 0.01%

## KWKLFKKIGAVLKVLTTGGGSYARAAARQARA [CM18-L1-PTD4]
HeLa cells [1]
  Mean % cells with GFP signal (±St. Dev.; n = 3): 0.16 ± 0.01%

## KWKLFKKIGAVLKVLTTGYARAAARQARA [CM18-PTD4]
HeLa cells [1]
  Mean % cells with GFP signal (±St. Dev.; n = 3): 0.06 ± 0.01%

## KWKLFKKIGAVLKVLTTGYARAAARQARAHHHHHH [CM18-PTD4-His]
HeLa cells [1]
  Mean % cells with GFP signal (±St. Dev.; n = 3): 0.26 ± 0.01%

## MHHHHHHKWKLFKKIGAVLKVLTTGYGRKKRRQRRRC [M-His-CM18-TAT-Cys]
HeLa cells [1]
  Mean % cells with GFP signal (±St. Dev.; n = 3): 0.13 ± 0.01%

## YARAAARQARA [PTD4, reference compound]
HeLa cells [1]
  Mean % cells with GFP signal (±St. Dev.; n = 3): 0.00 ± 0.01%
HeLa cells [4]; [5]
  Mean % cells with GFP signal (±St. Dev.; n = 3): 1.1 ± 0.06%

## YGRKKRRQRRRCKWKLFKKIGAVLKVLTTG [TAT-CM18]
HeLa cells [1]
  Mean % cells with GFP signal (±St. Dev.; n = 3): 0.06 ± 0.01%
HeLa cells [4]; [6]
  Mean % cells with GFP signal (±St. Dev.; n = 3): 39.4 ± 3.9%

## YGRKKRRQRRRCWEAKLAKALAKALAKHLAKALAKALKACEA (cysteines drawn unpaired) [TAT-KALA]
THP-1 cells; incubation 15 sec
  Mean % cells with GFP signal (±St. Dev.; n = 3): 47 ± 3.5%
THP-1 cells; incubation 30 sec
  Mean % cells with GFP signal (±St. Dev.; n = 3): 52.9 ± 1.3%
THP-1 cells; incubation 60 sec
  Mean % cells with GFP signal (±St. Dev.; n = 3): 70.1 ± 2.0%
THP-1 cells; incubation 120 sec
  Mean % cells with GFP signal (±St. Dev.; n = 3): 82.1 ± 2.5%
HeLa cells [4]; [6]
  Mean % cells with GFP signal (±St. Dev.; n = 3): 56.3 ± 3.6%
HeLa cells [4]; Table 10.2, shuttle 10 μM, incubation 1 min.
  Mean % cells with GFP signal (±St. Dev.; n = 3): 83.7 ± 3.5%
HeLa cells [4]; Table 10.2, shuttle 10 μM, incubation 2 min.
  Mean % cells with GFP signal (±St. Dev.; n = 3): 86.2 ± 4.3%
HeLa cells [4]; Table 10.2, shuttle 10 μM, incubation 5 min.
  Mean % cells with GFP signal (±St. Dev.; n = 3): 68.1 ± 3.0%
